Several values for one entry are separate records, joined by “and”; a condition that tells them apart may be missing. Equal values may be shown once. Entries after “also recorded” stand apart in the source; their conditions may differ. Read-outs that look alike come from different tables or passages of the source.
What was measured:
U2932 = test: Cytotoxicity in vitro (CellTiter-Glo viability), U2932; type: cell-based, human; details: U2932 (DLBCL), 72 hours
U2OS = type: cell-based, human; details: U2OS (OS), 72 hours; read-out: EC50 (nM), cytotoxicity in vitro
Jeko-1 MCL xenograft = Jeko-1 MCL xenograft mouse model (study 2); type: in vivo; details: 5 mg/kg IV Q4D, 3 weeks
Description: Jeko-1 (MCL) cells were engrafted subcutaneously into mice, and the engrafted mice were randomized into five groups, 9 mice/group. […] The mice were dosed IV q4d.

[1] = target: T1, cell surface ROR1 on Jeko-1 cells (Homo sapiens, UniProt Q01973); test: Cell surface ROR1 expression during internalization, Jeko-1 cells; type: cell-based; details: up to 4 hours
T1 construct: The Jeko-1 cell line, from mantle cell lymphoma, is a suspension cell line; host or cells: Jeko-1 (human mantle cell lymphoma)
T1 sequence (Q01973 30-937): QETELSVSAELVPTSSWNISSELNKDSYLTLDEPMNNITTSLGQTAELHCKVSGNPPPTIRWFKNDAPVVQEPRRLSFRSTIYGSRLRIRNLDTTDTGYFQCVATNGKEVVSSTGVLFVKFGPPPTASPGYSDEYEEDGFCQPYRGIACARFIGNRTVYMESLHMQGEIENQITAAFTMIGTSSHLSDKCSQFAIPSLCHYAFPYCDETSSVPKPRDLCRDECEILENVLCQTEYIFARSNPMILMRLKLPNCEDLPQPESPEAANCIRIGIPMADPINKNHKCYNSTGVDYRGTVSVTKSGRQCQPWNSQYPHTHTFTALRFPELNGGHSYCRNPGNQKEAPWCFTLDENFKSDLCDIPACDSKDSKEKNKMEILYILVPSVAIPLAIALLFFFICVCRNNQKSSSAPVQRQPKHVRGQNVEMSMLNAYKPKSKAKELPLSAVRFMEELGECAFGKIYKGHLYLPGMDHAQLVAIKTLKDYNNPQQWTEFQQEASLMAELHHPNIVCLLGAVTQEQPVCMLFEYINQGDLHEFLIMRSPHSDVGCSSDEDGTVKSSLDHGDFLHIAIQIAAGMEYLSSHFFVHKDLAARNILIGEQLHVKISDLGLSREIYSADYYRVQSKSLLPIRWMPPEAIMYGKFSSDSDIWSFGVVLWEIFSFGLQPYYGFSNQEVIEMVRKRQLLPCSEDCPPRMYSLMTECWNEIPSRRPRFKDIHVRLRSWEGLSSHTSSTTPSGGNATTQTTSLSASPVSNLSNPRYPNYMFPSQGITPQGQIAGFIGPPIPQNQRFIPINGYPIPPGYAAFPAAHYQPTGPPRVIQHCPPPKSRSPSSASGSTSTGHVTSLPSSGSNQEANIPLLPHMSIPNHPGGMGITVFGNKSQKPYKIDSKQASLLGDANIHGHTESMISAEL

A4573 = test: Cytotoxicity in vitro (CellTiter-Glo viability), A4573; type: cell-based, human; details: A4573 (EWS), 72 hours
MDA-MB-231 = test: Cytotoxicity in vitro (CellTiter-Glo viability), MDA-MB-231; type: cell-based, human; details: MDA-MB-231 (TNBC)
DOHH2 = details: read-out: EC50 (nM), cytotoxicity in vitro; DOHH2 (DLBCL), 96 hours (values marked *)
Description: ROR1 binding by these conjugates was tested in cell culture to define the potency of various linker-cytotoxic agent combinations. Three different types of cancer cell lines were tested: B-lymphoma cell-lines TMD-8, HBL-1, and DOHH2; triple negative breast cancer cell lines HCC1187, MDA-MB-468, Bt549; and ovarian cancer cell lines A2008, TOV112D, JHOM1, and SKOvr3.
Cells were cultured in log phase growth and distributed into 96-well plates. Each cell line was plated at a slightly different cell density, ranging from 5×10^3 to 50×10^4 cells/well. Cells in duplicate were incubated with 3-fold serial dilution of a particular immunoconjugate (10, 3.33, 1.11, 0.37, 0.12, 0.041, 0.014, and 0.0045 μM) for 72 hours at 37° C. and 5% CO2. After treatment, cells were incubated with an equal volume of CellTiter-Glo® reagent (Promega Inc.) for 15 minutes at room temperature and viability was determined by a luminometer. Curves and EC50 values were generated in GraphPad Prism using a sigmoidal dose response non-linear regression fit.
Cells were grown and distributed into 96-well plates as described in Example 5. Cells in duplicate were incubated with 3-fold serial dilution of a particular immunoconjugate (660, 220, 73.3, 24.4, 8.14, 2.71, 0.91, and 0.3 nM) for 72 hours at 37° C. and 5% CO2. In some experiments, cells were incubated with an immunoconjugate for 96 hours instead of 72 hours (values highlighted with “*”). After treatment, cell viability was determined as described in Example 5. Cell surface ROR1 expression was assessed by quantitative flow cytometry and ROR1 expression was characterized as MFI>30 or MFI<30 (MFI: mean fluorescent intensity).

A549 = test: Cytotoxicity in vitro (CellTiter-Glo viability), A549; type: cell-based, human; details: A549 (NSCLC), 72 hours
SAOS = test: Cytotoxicity in vitro (CellTiter-Glo viability), SAOS; type: cell-based, human; details: SAOS (OS), 72 hours
OPM2 = test: Cytotoxicity in vitro (CellTiter-Glo viability), OPM2; type: cell-based, human; details: OPM2 (MM), 72 hours
WSU-DLCL = test: Cytotoxicity in vitro (CellTiter-Glo viability), WSU-DLCL; type: cell-based, human; details: WSU-DLCL (DLBCL), 72 hours
BR5011 = test: Human TNBC PDX model BR5011; type: in vivo, mouse
Excerpt: Two PDX models displaying different levels of ROR1 expression were selected for this study. ROR1 expression was based on the level of ROR1 staining via IHC of a tissue microarray representing triplicate cores of TNBC PDX models. The mean level of ROR1 expression as assessed by % ROR1-positive cells were 58% and 38% for human TNBC cells BR5011 and BR5015, respectively.
NOD/SCID nude mice were subcutaneously injected with BR5011 or BR5015 cells in the mammary fat pad. When palpable tumors were observed (mean tumor volume approximately 150 mm^3 for BR5011 and approximately 250 mm^3 for BR5015), animals were randomized into three groups. The groups for the BR5011 PDX model were vehicle control, 1 mg/kg ADC-A IV q4d, and 5 mg/kg ADC-A IV q4d. The groups for the BR5015 PDX model were vehicle control, 1 mg/kg ADC-A IV qw, and 5 mg/kg ADC-A IV qw. Mean TGI was calculated as described above.

HOS = test: Cytotoxicity in vitro (CellTiter-Glo viability), HOS; type: cell-based, human; details: HOS (OS), 72 hours
DLBCL-GCB PDX = DLBCL-GCB PDX mouse model; type: in vivo; details: 24 days
Description: Germinal center B-cell like diffuse large B-cell lymphoma (DLBCL-GCB) cells were engrafted subcutaneously into mice, and the engrafted mice were randomized into five groups, 6 mice/group. The groups were vehicle control, 10 mg/kg Ab1, 50 mg/kg venetoclax, 10 mg/kg Ab1 plus 50 mg/kg venetoclax, and 5 mg/kg ADC-A. Ab1 and ADC-A were administered IV, qw and venetoclax was administered PO qd.

Jeko-1 = test: Cytotoxicity in vitro (CellTiter-Glo viability), Jeko-1; type: cell-based, human; details: Jeko-1 (MCL), read-out: EC50 (nM), cytotoxicity in vitro

B1: ADC-A: Ab1 conjugated via MAL (mc)-VC-PAB linker to MMAE (conjugate)
heavy: QVQLQESGPGLVKPSQTLSLTCTVSGYAFTAYNIHWVRQAPGQGLEWMGSFDPYDGGSSYNQKFKDRLTISKDTSKNQVVLTMTNMDPVDTATYYCARGWYYFDYWGHGTLVTVSS[skipping human IgG1 constant region]
light: DIVMTQTPLSLPVTPGEPASISCRASKSISKYLAWYQQKPGQAPRLLIYSGSTLQSGIPPRFSGSGYGTDFTLTINNIESEDAAYYFCQQHDESPYTFGEGTKVEIKRTVAAPSVFIFPPSDEQLKSGTASVVCLLNNFYPREAKVQWKVDNALQSGNSQESVTEQDSKDSTYSLSSTLTLSKADYEKHKVYACEVTHQGLSSPVTKSFNRGEC
Q: How did the EC50 (U2932) turn out when B1 was run?
A: 176 nM

Q: And the EC50 (U2OS)?
A: 223 nM

Q: And the tumor growth (Jeko-1 MCL xenograft)?
A: caused tumor regression

Q: What about the “cell surface ROR1 expression during treatment” value [1] of the same molecule?
A: ROR1 expression was maintained, or slightly increased

Q: What about the EC50 (A4573) of the same molecule?
A: 15.3 nM

Q: And the EC50 (MDA-MB-231; 72 hours)?
A: 106 nM

Q: And the EC50 (MDA-MB-231; 96 hours (values marked *))?
A: 58.4 nM and 46.7 nM

Q: And the EC50 (DOHH2)?
A: 48.3 nM

Q: What about the EC50 (A549) of the same molecule?
A: 53.4 nM

Q: What about the EC50 (SAOS) of the same molecule?
A: 26.3 nM

Q: What about the EC50 (OPM2) of the same molecule?
A: 123 nM

Q: And the EC50 (WSU-DLCL)?
A: 68 nM

Q: What about the “mean TGI” value (BR5011; 1 mg/kg IV q4d) of the same molecule?
A: 40.1% at 1 mg/kg,

Q: What about the “mean TGI / tumor response” value (BR5011; 5 mg/kg IV q4d, 58% of intra-tumoral cells ROR1-positive) of the same molecule?
A: complete and sustained regressions were observed in all tumors; also recorded: complete regression at 5 mg/kg

Q: And the EC50 (HOS)?
A: 126 nM and 148 nM

Q: What about the tumor regression (DLBCL-GCB PDX; 5 mg/kg ADC-A IV qw) of the same molecule?
A: regression (104%) with

Q: What about the tumor response (DLBCL-GCB PDX; ADC-A 5 mg/kg IV qw, Ab1 10 mg/kg IV qw, venetoclax 50 mg/kg PO qd) of the same molecule?
A: complete tumor regression in all animals treated

Q: And the EC50 (Jeko-1; 72 hours)?
A: 187 nM

Q: And the EC50 (Jeko-1; 96 hours (values marked *))?
A: 22.4 nM and 40.4 nM
